# Assay results taken from article PMC9911399, “Two distinct binding modes provide the RNA-binding protein RbFox with extraordinary sequence specificity”.
# Where a chain is given by its changes, count along the chain named. The list shows a part of the results.
# T1: RBFOX1 RRM RbFoxmut (Fox-RRM*) (Homo sapiens, UniProt Q9NWB1 109-208, R118D;E147R;N151S;E152T)
# T1 sequence: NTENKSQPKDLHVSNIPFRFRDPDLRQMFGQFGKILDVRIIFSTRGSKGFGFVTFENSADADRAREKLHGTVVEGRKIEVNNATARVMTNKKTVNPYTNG
# B1: UGCUAGU (DNA:RNA)
# RNA: GGGAGACCGGAAUUCAGAUUGUCCUGCUAGUUUAAAUCCCGUCGUAGCCACCA
# DNA 1: CAATCTGAATTCCGGTCTCCC
# DNA 2: TGGTGGCTACGACGGGATT
# B2: CCUAAUC (DNA:RNA)
# RNA: B1 RNA with U25C, G26C, C27U, U28A, G30U, U31C
# DNA 1: CAATCTGAATTCCGGTCTCCC
# DNA 2: TGGTGGCTACGACGGGATT
# B3: UUCGAGG (DNA:RNA)
# RNA: B1 RNA with G26U, U28G, U31G
# DNA 1: CAATCTGAATTCCGGTCTCCC
# DNA 2: TGGTGGCTACGACGGGATT
# B4: GAAUGUG (DNA:RNA)
# RNA: B1 RNA with U25G, G26A, C27A, A29G, G30U, U31G
# DNA 1: CAATCTGAATTCCGGTCTCCC
# DNA 2: TGGTGGCTACGACGGGATT
# B5: AAUGCUG (DNA:RNA)
# RNA: GGGAGACCGGAAUUCAGAUUGUCCAAUGCUGUUAAAUCCCGUCGUAGCCACCA
# DNA 1: CAATCTGAATTCCGGTCTCCC
# DNA 2: TGGTGGCTACGACGGGATT
# B6: UCAGCCG (DNA:RNA)
# RNA: B5 RNA with A25U, A26C, U27A, U30C
# DNA 1: CAATCTGAATTCCGGTCTCCC
# DNA 2: TGGTGGCTACGACGGGATT
# B7: GGGAUCC (DNA:RNA)
# RNA: B1 RNA with U25G, C27G, U28A, A29U, G30C, U31C
# DNA 1: CAATCTGAATTCCGGTCTCCC
# DNA 2: TGGTGGCTACGACGGGATT
# B8: AGUUCGA (DNA:RNA)
# RNA: B5 RNA with A26G, G28U, U30G, G31A
# DNA 1: CAATCTGAATTCCGGTCTCCC
# DNA 2: TGGTGGCTACGACGGGATT
# B9: GUGCAGC (DNA:RNA)
# RNA: B1 RNA with U25G, G26U, C27G, U28C, U31C
# DNA 1: CAATCTGAATTCCGGTCTCCC
# DNA 2: TGGTGGCTACGACGGGATT
# B10: AGAUUAU (DNA:RNA)
# RNA: B1 RNA with U25A, C27A, A29U, G30A
# DNA 1: CAATCTGAATTCCGGTCTCCC
# DNA 2: TGGTGGCTACGACGGGATT
# B11: CGCACAG (DNA:RNA)
# RNA: B5 RNA with A25C, A26G, U27C, G28A, U30A
# DNA 1: CAATCTGAATTCCGGTCTCCC
# DNA 2: TGGTGGCTACGACGGGATT
# B12: UUGAAAU (DNA:RNA)
# RNA: B1 RNA with G26U, C27G, U28A, G30A
# DNA 1: CAATCTGAATTCCGGTCTCCC
# DNA 2: TGGTGGCTACGACGGGATT
# B13: GUUCCCG (DNA:RNA)
# RNA: B5 RNA with A25G, A26U, G28C, U30C
# DNA 1: CAATCTGAATTCCGGTCTCCC
# DNA 2: TGGTGGCTACGACGGGATT
# B14: UGCGUCG (DNA:RNA)
# RNA: B1 RNA with U28G, A29U, G30C, U31G
# DNA 1: CAATCTGAATTCCGGTCTCCC
# DNA 2: TGGTGGCTACGACGGGATT
# B15: ACGAGCU (DNA:RNA)
# RNA: B5 RNA with A26C, U27G, G28A, C29G, U30C, G31U
# DNA 1: CAATCTGAATTCCGGTCTCCC
# DNA 2: TGGTGGCTACGACGGGATT
# B16: GAUAAAC (DNA:RNA)
# RNA: B5 RNA with A25G, G28A, C29A, U30A, G31C
# DNA 1: CAATCTGAATTCCGGTCTCCC
# DNA 2: TGGTGGCTACGACGGGATT
# B17: GUAAAAA (DNA:RNA)
# RNA: B1 RNA with U25G, G26U, C27A, U28A, G30A, U31A
# DNA 1: CAATCTGAATTCCGGTCTCCC
# DNA 2: TGGTGGCTACGACGGGATT
# B18: AUCCAAA (DNA:RNA)
# RNA: B1 RNA with U25A, G26U, U28C, G30A, U31A
# DNA 1: CAATCTGAATTCCGGTCTCCC
# DNA 2: TGGTGGCTACGACGGGATT
# B19: AGCUAGU (DNA:RNA)
# RNA: B1 RNA with U25A
# DNA 1: CAATCTGAATTCCGGTCTCCC
# DNA 2: TGGTGGCTACGACGGGATT
# B20: CUUUGUG (DNA:RNA)
# RNA: B5 RNA with A25C, A26U, G28U, C29G
# DNA 1: CAATCTGAATTCCGGTCTCCC
# DNA 2: TGGTGGCTACGACGGGATT
# Molecular target: T1, RBFOX1 RRM RbFoxmut (Fox-RRM*)
# Assay: EMSA; HiTS-Eq, 1 nM pool, 10 min; buffer printed only for the single-RNA assays: 10 mM Tris pH 7.5, 150 mM NaCl, 3.4 mM EDTA, 0.001% NP-40, 30 C
# Conditions: tags: His6 N-terminal (pET28a); label: 5' 32P
# Outline: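 Purified RbFox RRM (wild type or mutant) was equilibrated for 10 min in 50 µL with 1 nM of a 5′-radiolabelled pool of RNA with 7 randomized nucleotides, its flanks annealed to DNA oligonucleotides, across increasing protein concentrations. Free RNA was separated by 8% native PAGE, excised, reverse-transcribed, PCR-barcoded and sequenced on an Illumina HiSeq 2500. Relative association constants came from read-count changes of each variant against the control reaction, normalised to the cognate motif.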
row,Binder,binding signal
1,B1,0.14 KA relative to UGCAUGU
2,B2,0.0597 KA relative to UGCAUGU
3,B3,0.077 KA relative to UGCAUGU
4,B4,1.27 KA relative to UGCAUGU
5,B5,0.101 KA relative to UGCAUGU
6,B6,0.112 KA relative to UGCAUGU
7,B7,0.154 KA relative to UGCAUGU
8,B8,0.118 KA relative to UGCAUGU
9,B9,0.0878 KA relative to UGCAUGU
10,B10,0.124 KA relative to UGCAUGU
11,B11,0.0801 KA relative to UGCAUGU
12,B12,0.0963 KA relative to UGCAUGU
13,B13,0.0669 KA relative to UGCAUGU
14,B14,0.191 KA relative to UGCAUGU
15,B15,0.0896 KA relative to UGCAUGU
16,B16,0.0531 KA relative to UGCAUGU
17,B17,0.11 KA relative to UGCAUGU
18,B18,0.122 KA relative to UGCAUGU
19,B19,0.145 KA relative to UGCAUGU
20,B20,0.131 KA relative to UGCAUGU
